Some of the results follow. Read counts after selection give these values, which scatter widely. Each score is taken over the longer molecules that contain the sequence shown.
tested on: IMP3 RRM1-2; experiment: 6-mer SELEX enrichment z-score vs GST control; IMP3 is the RNA-binding protein IGF2BP3; higher = more enriched by binding; settings: construct: RRM1-2 (1-163); SELEX round: R2
Protocol: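 SELEX-seq with GST-tagged IMP3 RRM1-2 (Met1-Asn163) and an N40 RNA pool, round 2. 6-mer enrichment z-score normalised to GST SELEX. RNA written as DNA (T = U).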

Sequence of IMP3 RRM1-2 (chain, as listed by the source): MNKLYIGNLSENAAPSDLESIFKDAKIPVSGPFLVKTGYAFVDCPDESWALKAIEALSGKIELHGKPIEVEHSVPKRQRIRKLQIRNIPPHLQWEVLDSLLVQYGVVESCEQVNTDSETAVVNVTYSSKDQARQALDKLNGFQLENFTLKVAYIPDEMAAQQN

Sequence | 6-mer SELEX enrichment z-score
GTCATT | 0.567
TACCCA | -0.329
CAGTAA | -0.047
CTGTCG | 0.212
GGTGCA | 0.232
TTATCT | 0.385
CGAGTT | 0.08
CATCTT | 0.666
CAGATA | 0.199
GTTGCG | 0.296
GAGAAG | -0.984
TCGGGA | -0.029
GGTGGG | 0.281
TGTTGT | 0.443
AGGCTC | 0.49
TTGCAC | 0.269
TCTTAA | -0.051
TCGGAG | 0.041
ATGGGG | 0.225
GAATGG | -0.547

Sequence | 6-mer SELEX enrichment z-score
TGAAGC | -0.578
TCTGAT | 0.096
TGTTCA | 0.305
GGGAAT | -0.366
ACGGGG | -0.463
TCCACC | -0.08
CAGTTT | 0.405
AGTCAA | 0.068
AATCCC | -1.07
TTTATC | 0.442
CTGCAA | -0.227
CAGAAT | -0.012
GCAGCT | 0.37
CATTAC | 1.82
TGTACA | 0.062
GTGATA | -0.361
TATTCC | 0.007
ACACGC | 1.03
CCGCAT | 0.545
ATAAAG | -1.02

Reference: the supplement of paper PMC6531468
